Numbering of substitutions follows the chain as printed. Like-named read-outs stand apart in the source and are kept apart here.
B1: DOMAIN_13601 (protein, listed as Macaca fascicularis)
chain: SYEGSVSFRDVAINFSREEWQHLDLSQRNLYRDVMLETCSHLLSVGYQVPKPEVVMLEQGKEPWALQGERPRQSCPGEKLW
B2: DOMAIN_13609 (protein, listed as Phascolarctos cinereus)
chain: GEEAVTFRDVALDFTWEEWGCLSAAQRELYKDVMLENYRNLVSLGLPGPKPGLISWLEGEEEPHPWDSLVHAARSTSLSKA
B3: DOMAIN_13610 (protein, listed as Phascolarctos cinereus)
chain: HQGSVTFGDVAVDFSQDEWGHLDPAQKELYREVMLENYGNLVCLGLAVSRPHVIEQLERGEAPWLPRGAVPRSCDLDWMTR
B4: DOMAIN_13644 (protein, listed as Phascolarctos cinereus)
chain: QASVTFRDVAVDFTGEEWRCLEPAQRALYRDVMLETYENLVFLGLSVPISKLDLIFLLERGGALSRPMGRVPSDSCPDSFI
B5: DOMAIN_19821 (protein, listed as Rhinopithecus roxellana)
chain: VQEPVTFKDVAVDFTQEEWGQLDLVQRTLYRDVMLETYGHLLSVGNQIAKPEVISLLEQGEEPWSMEQACPQRTCPEWMRN
B6: DOMAIN_13648 (protein, listed as Oryctolagus cuniculus)
chain: QAQEVLMFDDVAVRFTWEEWQLLNPAQKALYRDVMLENYRSLVSVGWRASKPDLLSQLERGEPWTIEGENHCGTPPEIWKA
B7: DOMAIN_13650 (protein, listed as Ailuropoda melanoleuca)
chain: RPGAVSFADVAVYFSPEEWGCLRPAQRALYRDVMRETYGHLGALGFAGPKPALISWLERKKEVWSPEAEDPEEGARHPGSG
B8: DOMAIN_13664 (protein, listed as Macaca fascicularis)
chain: AQESVMFSDVSIDFSQEEWECLNDDQRDLYRDVMLENYSNLVSMGHSISKPNVISYLEQGKEPWLVDRELTRGQWPVLESR
B9: DOMAIN_13703 (protein, listed as Lynx canadensis)
chain: KPGALSFADVAVYFSSEEWGCLRPAQRALYRDVMRETYGHLGALGFAGPKPALISWMERKKEAWSPEAEDPEDRASRIRAK
B10: DOMAIN_13705 (protein)
chain: SQPPVSFKDVVVSFTREEWGQLDTVQRTLYRDVTLETCGHLVSLGLLLPNLDVISHLENGEDPWRAEQEPPTQDWKTTLEK
modifications: Phyllostomus discolor
B11: DOMAIN_13722 (protein, listed as Phascolarctos cinereus)
chain: PQESVTFEDVAVDFTWEEWGYLDTSQKELYWEVMLENYKNLVSLGFVVAKPDAISQLEQEEAPWRPEVLFPRSSCSDLDTK
B12: DOMAIN_13723 (protein, listed as Phascolarctos cinereus)
chain: QEDPVTFQDVAVVFTQEQWGYLDPSQKELYRDVMLENYQNLLCLGLAVSKPEVICQLEQGEAPWRPEGRVPGSSHPDGEVR
B13: DOMAIN_19892 (protein, listed as Ursus maritimus)
chain: VQSHVVFEDVAIYFSQEEWGLLDEAQRFLYHAVMLENFALLSSLGCWHGAQDEQALSEQGVSVGGSQVRTPKPAPSIQKSQ
B14: DOMAIN_13733 (protein, listed as Sapajus apella)
chain: SQELLTFKDISIDFTQEEWGQLTPAHQNLYREVMLENYSNLVSVAGYQLSKPVVISQLEKGEEPWMTEKEGPGDPSSDLKS
B15: DOMAIN_13783 (protein, listed as Macaca fascicularis)
chain: KPRTVSFADVAVYFSREEWGCLRPAQRALYRDVMRETYGHLGALGVGGSKPALISWVEEEAELWDPAAQDPEVTKCPTETD
B16: DOMAIN_13805 (protein, listed as Lynx canadensis)
chain: RPESVTFEDVAVYFSENEWIGLAPAQRVLYRDVMLENYGVVASLAFPFPKPALISQLERGEAPWCKAPQGALDGECPRGVS
B17: DOMAIN_13823 (protein, listed as Macaca fascicularis)
chain: KPGAVSFADVAVYFSPEEWGCLRPAQRALYRDVMRETYGHLGALGFPGPKPALISWMEQETEAWSPAAQDPEKGERLGGAR
B18: DOMAIN_13830 (protein, listed as Phascolarctos cinereus)
chain: PQEAVTFKDVVVDFTQEEWKCLDSSQKEFYRDVMLENYSNLVSLGLAFPKPYVIDQLERREAPWIPEGDIPRISHPERKKK
B19: DOMAIN_13832 (protein, listed as Phascolarctos cinereus)
chain: PRGLVTFKDVAVDFTQEEWGLLDHNQKELYKEVMLENARNLLSLGLPVPREDVISYFEQREAPWMLEQEGLRSRCLEGEIR
B20: DOMAIN_13843 (protein, listed as Phascolarctos cinereus)
chain: GQESVTFTDVAVDFTLEEWAYLDHFQKELYKDVMLENYRNLLCLGLAVSKPDVISQLEQGDAPWMSEGGVPRSIYSDWETR
B21: DOMAIN_13851 (protein, listed as Canis lupus)
chain: SHGPLSFEDVAVAFTKEEWQQLDPAQRTLYRDVMLENFSHLVSLGHPVSKPDVISKLEQGEEPWIIKRDIPNWIYPERENR
B22: DOMAIN_13859 (protein, listed as Macaca fascicularis)
chain: ALRSVMFSDVSIDFSPEEWEYLDLEQKDLYRDVMLENYSNLVSLGCFISKPDVISLLEQGKEPWKVVRKGRRQYPDLETKY
B23: DOMAIN_13878 (protein, listed as Ailuropoda melanoleuca)
chain: SKVPVTFGDLAIYFSQEEWEWLSPIQKDLYEDVMLENYQNLVSLGLSFRRPNVITLLEKGKAPWMVEPVRKRRGVDSGSKC
B24: DOMAIN_13880 (protein, listed as Lynx canadensis)
chain: RPRAVKFADVAVYFSTEEWGCLRPAQRALYRDVMRETYGHLGALGCAGPKPALISWLERNTDDWEPAALDPQECPRGVAVQ
B25: DOMAIN_13907 (protein, listed as Phascolarctos cinereus)
chain: MQESVTFKDVAVDFTQEEWKQLDPAQRDLYRDVMLENYRNLVSLGLPVFKPDVISQLEKGEAPWTPEVPRSTCSGSFSQEA
B26: DOMAIN_13910 (protein, listed as Bos mutus)
chain: B17 chain with G3L, S6R, R35Q, T61S, K73E, R76S, R81L
B27: DOMAIN_13915 (protein)
chain: PQEPVTFADVAVLFTPEEWLFLDSAQKSLYRDVMLENYRNLASVGDQLCKTRMSSHMEQREELCVTERGVFPGAHLGPHLQ
modifications: Muntiacus muntjak
B28: DOMAIN_13958 (protein, listed as Phascolarctos cinereus)
chain: FQESVTFKDVAVDFTWEEWGYLDTSQKELYWEVMLENYRNLVSLGLADSNVNMISQLESGEAHGISVDSVLRSCWPDGDTR
B29: DOMAIN_13970 (protein, listed as Lynx canadensis)
chain: GPWTLLTFRDVAIEFSQEEWGCLNHSQRELYRDVMLETYGHLLFLGLVSKPDLVILLEQKKELWGVKRKETVASHPGRWEI
B30: DOMAIN_13979 (protein, listed as Macaca fascicularis)
chain: FQGSVTFEDVAIAFSQQEWESLDSSQRGLYRDVMLENYRNLVSMGHSLSKPHVIALLERWKEPKVTDRKDGRRWCTDLQLE
B31: DOMAIN_13981 (protein, listed as Phascolarctos cinereus)
chain: QNPVTFRDVAVDFSLEEWKCLSPAQRALYRDVMLENYENLASVGPRLPFSKPYVISQLERGEAPWMPEEEVPRDHWPDLFN
B32: DOMAIN_13984 (protein, listed as Phascolarctos cinereus)
chain: SQIPLTFQDVAVDFTWEEWGLLEPSQKDMYWDVMLENYENFVSLGGLPICLPDVISRMERIEAPWMAEGGVLVSTFLGSLS
B33: DOMAIN_13987 (protein, listed as Myotis lucifugus)
chain: LQESVTFKDVAVLFTQDEWAQLSPAQRALYRDVMLENYSHLVSLGLLGPKPDLFAQLGKGEEWTPEDTSRGFCLDWMTIPV
B34: DOMAIN_19949 (protein, listed as Callorhinus ursinus)
chain: AEGHVTFEDVAVYFSWEEWGLLDEAQRLLYRDVMLENLALMASLGLASSRTHEITQLEWWREPFLPPCGVVTAAMPRGWRR
B35: DOMAIN_14013 (protein, listed as Ailuropoda melanoleuca)
chain: MTFEDVAVEFTQWEWGQLDPAQQDLYREVMLENFKNLASLGLPVSKPYVITQLEEGKDPCVLDGEISTEYLSPPPDWEKRP
B36: DOMAIN_14031 (protein)
chain: IGSDLFRDVAVVFSREEWEQLTPAQRDLYRDVMLEIYSILLSLGPDLAVSKPDVISFLEQGKEPWRVEEAVTGGLCPVLES
modifications: Phyllostomus discolor
B37: DOMAIN_14040 (protein, listed as Phascolarctos cinereus)
chain: ARGPVSFADVAVYFSPEEWGRLRPAQRALYRDVMRETYGHLGALGFPGPKPALMCWMDEETEVWGPDARDPEEAGEKGTEN

Tested on: HBEGF locus
Type: cell-based, human
[1] = repressor domain in dXR, repression of the HBEGF gene, abundance of domain in library after vs before diphtheria toxin selection
[2] = high-throughput screen of dXR repression of the HBEGF gene, change in abundance of each domain in the library before and after diphtheria toxin selection
[3] = high-throughput screen of dXR repression of the HBEGF gene, abundance of each domain in the library before and after diphtheria toxin selection, HEK293T cells

Molecule | Log2 (fold change) [3] | further results
B1 |  | Log2 (fold change) [1]: 2.4865
B2 |  | Log2 (fold change) [1]: 3.1787
B3 |  | Log2 (fold change) [1]: 3.1925
B4 |  | Log2 (fold change) [1]: 3.2677
B5 |  | Log2 (fold change) [2]: 3.583
B6 |  | Log2 (fold change) [1]: 3.1393
B7 |  | Log2 (fold change) [1]: 3.8556
B8 | 2.7443 | 
B9 | 3.7947 | 
B10 | 2.496 | 
B11 | 2.4814 | 
B12 | 2.9677 | 
B13 |  | Log2 (fold change) [2]: 3.1396
B14 | 3.3285 | 
B15 | 2.5821 | 
B16 | 3.1769 | 
B17 | 4.219 | 
B18 | 2.6435 | 
B19 | 2.9705 | 

Molecule | Log2 (fold change) [3] | further results
B20 | 3.6119 | 
B21 | 2.6472 | 
B22 | 2.2006 | 
B23 | 4.3232 | 
B24 | 3.0991 | 
B25 | 2.4263 | 
B26 | 2.9556 | 
B27 | 2.8554 | 
B28 | 3.2926 | 
B29 | 2.89 | 
B30 | 2.6188 | 
B31 | 2.8041 | 
B32 | 2.8513 | 
B33 | 3.0633 | 
B34 |  | Log2 (fold change) [2]: 3.2903
B35 | 2.4619 | 
B36 | 3.0963 | 
B37 | 3.0933 | 

From US12551573B2, “Compositions and methods for the targeting of PCSK9” (Scribe Therapeutics Inc., priority 2022, dated 2026)
